Laboratory results reported in PubChem BioAssay (NCATS).
The shares of active, inactive and inconclusive entries below differ from those in the screen. For part of these data: Potencies beside an inconclusive call are fits to weak or partial responses and may not hold up. The source made the active and inactive calls. Unless noted, calls come from the whole dose curve; as a rule, active = well fitted curve in the direction sought with a large enough effect; inconclusive = small, poorly fitted or top-dose-only effect, or another doubt; inactive = no such curve, though single readings can be large; an effect the other way counts as inactive or inconclusive.

How the values were obtained:
[1] = NFAT Signaling Pathway (AID 444; active = well fitted curve in either direction with a large enough effect, not every such curve was filed as active; inconclusive = small, poorly fitted or top-dose-only effect, or another doubt;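 note: carbachol stimulus at about its EC50 of 1 µM final; % is set by controls: 0 for no effect and ±100 for the full control effect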); details: Jurkat NFAT-bla M1, carbachol, beta-lactamase ratio, 5 h; at 7.69 µM (top of the series) unless noted
Outline: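 Read-out: CCF4 FRET ratio (460 nm/530 nm) after 1 h RT dye loading, used for %activity and AC50 from titration series. Cells: Jurkat NFAT-β-lactamase/M1 line, treated with compound plus 1 uM carbachol for 5 h, 37 °C.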

[2] = qHTS Assay for Identification of Small Molecule Antagonists for NFkB Signaling Pathway (AID 895; active = well fitted inhibition curve with a large enough effect in the signal ratio, with a control signal flat, not every such curve was filed as active; inconclusive = small, poorly fitted or top-dose-only effect, or effect the other way, or a change in a side signal; the % refers to the signal ratio; note: % is set by controls: 0 for no effect and ±100 for the full control effect); details: NFkB beta-lactamase reporter cells, FRET ratio 460/530; activity change, negative = inhibition: at 38.3 µM (top of the series) unless noted
Outline: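 Beta-lactamase reporter read-out (460 and 530 nm emission ratio, 405 nm excitation, 2 hrs substrate loading RT) after 5 hr stimulation with 10 pM TNF alpha in compound-treated NFkB-bla ME-180 cells in low-serum medium.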

[3] = qHTS Assay for Identification of Small Molecule Agonists for Hypoxia Response Element Signaling Pathway (AID 914; active = well fitted activation curve with a large enough effect in the signal ratio, with a control signal flat, not every such curve was filed as active; inconclusive = small, poorly fitted or top-dose-only effect, or effect the other way, or a change in a side signal; the % refers to the signal ratio; note: top concentration of the series differs between compounds; % of control where 0% means no effect); details: ME-180 (cervical carcinoma) HRE-bla reporter, beta-lactamase ratio, CoCl2, 17 h; activation: active compounds read high
Outline: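 HRE-bla ME-180 cells, overnight plating in Opti-MEM with 0.5% dialyzed FBS; cpd titration + EC50 CoCl2, 17 h, 37 degrees Celsius; CCF4 2.5 h RT; 460/530 nm ratio; AC50.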

[4] = qHTS Assay for Identification of Small Molecule Antagonists for Thrombopoietin (TPO) Signaling Pathway (AID 918); details: TPO-dependent cell signaling reporter, antagonist mode; activity change, negative = inhibition: at 38.5 µM (top of the series); note: nearly all actives have a fitted effect of over 60% in size
Outline: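 Ba/F3 (murine, hTPO-R, GPIIb-luc reporter); overnight IL-3 withdrawal; cpd + TPO 26 pM final (EC50); 24 h 37 C/5% CO2; Steadylite luminescence after 10 min RT.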

[5] = target: Muscarinic acetylcholine receptor M1 (Rattus norvegicus) (UniProt P08482); assay: qHTS Assay for Antagonists of Acetylcholine Muscarinic M1 Receptor: Kinetic Measurement of Intracellular Calcium Response (AID 943); note: potency is the fitted concentration of half-maximal effect; nearly all actives have a fitted effect of over 75% in size
UniProt P08482, sequence (P08482 whole entry, looked up): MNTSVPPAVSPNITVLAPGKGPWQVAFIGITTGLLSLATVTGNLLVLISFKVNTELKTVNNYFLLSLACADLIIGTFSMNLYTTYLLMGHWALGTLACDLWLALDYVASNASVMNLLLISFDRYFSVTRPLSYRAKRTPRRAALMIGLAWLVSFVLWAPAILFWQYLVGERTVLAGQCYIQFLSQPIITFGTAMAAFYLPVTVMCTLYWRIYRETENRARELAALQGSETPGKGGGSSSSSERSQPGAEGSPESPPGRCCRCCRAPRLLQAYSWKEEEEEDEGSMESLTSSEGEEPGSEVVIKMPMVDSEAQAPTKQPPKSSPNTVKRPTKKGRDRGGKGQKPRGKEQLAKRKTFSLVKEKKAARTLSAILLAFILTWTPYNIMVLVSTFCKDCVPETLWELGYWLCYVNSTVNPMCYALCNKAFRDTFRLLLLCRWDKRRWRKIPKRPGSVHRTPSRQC
Outline: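 Rat M1-CHO cells, 2000/well, overnight → Fluo-4 no-wash dye with probenecid, 1 h 37C → compound 10 min, room temp → basal read 6 s → carbachol EC80 (100 nM) → 4 min kinetic read; peak/basal.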

[6] = target: Muscarinic acetylcholine receptor M1 (Rattus norvegicus) (UniProt P08482); assay: qHTS Assay for Antagonists of Acetylcholine Muscarinic M1 Receptor: Measurement of IP-One Response (AID 944); note: potency is the fitted concentration of half-maximal effect; nearly all actives have a fitted effect of over 75% in size
[7] = qHTS Assay for Lipid Storage Modulators (AID 1519; calls by dose curve; note: % is set by controls: 0 for no effect and ±100 for the full control effect); details: Drosophila S3 cells, BODIPY lipid droplet/cell ratio, laser cytometry, cells loaded with oleic acid; activity change, negative = inhibition: at 57.5 µM (top of the series) unless noted
Outline: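 Cells seeded at 5,000 per well were treated with compounds over a concentration series and loaded with oleic acid (400 uM, as added). Lipid droplet fluorescence (488 nm excitation, 500-530 nm channel) was read by laser-scanning cytometry and normalized to 20 uM Triacsin C.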

[8] = qHTS for differential inhibitors of proliferation of Plasmodium falciparum line 7G8 (AID 1815);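 note: potency is the fitted concentration of half-maximal effect; parasite growth measured after three days of incubation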
[9] = qHTS for differential inhibitors of proliferation of Plasmodium falciparum line GB4 (AID 1816); details: Potency: Plasmodium falciparum GB4 proliferation inhibition;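 note: potency is the fitted concentration of half-maximal effect; parasite growth measured after 72 h incubation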
[10] = qHTS for differential inhibitors of proliferation of Plasmodium falciparum line 3D7 (AID 1876); note: potency is the fitted concentration of half-maximal effect
[11] = qHTS for differential inhibitors of proliferation of Plasmodium falciparum line Dd2 (AID 1882); details: Potency: Plasmodium falciparum Dd2 proliferation inhibition; note: potency is the fitted concentration of half-maximal effect; nearly all actives have a fitted effect of over 65% in size
Outline: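 Dd2-infected erythrocytes (0.3% parasitemia, 2.5% hematocrit final) incubated with compound 72 h at 37 C, 5% CO2; lysed with saponin/Triton buffer containing SYBR Green I, incubated overnight in the dark, then read by fluorescence (485/535 nm). Normalized to 0.29 uM artemisinin and DMSO.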

[12] = qHTS for differential inhibitors of proliferation of Plasmodium falciparum line HB3 (AID 1886); details: Potency: Plasmodium falciparum HB3 proliferation inhibition;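 note: potency is the fitted concentration of half-maximal effect; parasites grown with compound for 72 h before SYBR Green readout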
[13] = target: RecQ-like DNA helicase BLM (Homo sapiens) (UniProt P54132); assay: qHTS Validation Assay for Inhibitors of Bloom's syndrome helicase (BLM) (AID 2364);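 note: plate controls were DMSO vehicle for no effect and enzyme-free control for full effect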
UniProt P54132, sequence (P54132 whole entry, looked up): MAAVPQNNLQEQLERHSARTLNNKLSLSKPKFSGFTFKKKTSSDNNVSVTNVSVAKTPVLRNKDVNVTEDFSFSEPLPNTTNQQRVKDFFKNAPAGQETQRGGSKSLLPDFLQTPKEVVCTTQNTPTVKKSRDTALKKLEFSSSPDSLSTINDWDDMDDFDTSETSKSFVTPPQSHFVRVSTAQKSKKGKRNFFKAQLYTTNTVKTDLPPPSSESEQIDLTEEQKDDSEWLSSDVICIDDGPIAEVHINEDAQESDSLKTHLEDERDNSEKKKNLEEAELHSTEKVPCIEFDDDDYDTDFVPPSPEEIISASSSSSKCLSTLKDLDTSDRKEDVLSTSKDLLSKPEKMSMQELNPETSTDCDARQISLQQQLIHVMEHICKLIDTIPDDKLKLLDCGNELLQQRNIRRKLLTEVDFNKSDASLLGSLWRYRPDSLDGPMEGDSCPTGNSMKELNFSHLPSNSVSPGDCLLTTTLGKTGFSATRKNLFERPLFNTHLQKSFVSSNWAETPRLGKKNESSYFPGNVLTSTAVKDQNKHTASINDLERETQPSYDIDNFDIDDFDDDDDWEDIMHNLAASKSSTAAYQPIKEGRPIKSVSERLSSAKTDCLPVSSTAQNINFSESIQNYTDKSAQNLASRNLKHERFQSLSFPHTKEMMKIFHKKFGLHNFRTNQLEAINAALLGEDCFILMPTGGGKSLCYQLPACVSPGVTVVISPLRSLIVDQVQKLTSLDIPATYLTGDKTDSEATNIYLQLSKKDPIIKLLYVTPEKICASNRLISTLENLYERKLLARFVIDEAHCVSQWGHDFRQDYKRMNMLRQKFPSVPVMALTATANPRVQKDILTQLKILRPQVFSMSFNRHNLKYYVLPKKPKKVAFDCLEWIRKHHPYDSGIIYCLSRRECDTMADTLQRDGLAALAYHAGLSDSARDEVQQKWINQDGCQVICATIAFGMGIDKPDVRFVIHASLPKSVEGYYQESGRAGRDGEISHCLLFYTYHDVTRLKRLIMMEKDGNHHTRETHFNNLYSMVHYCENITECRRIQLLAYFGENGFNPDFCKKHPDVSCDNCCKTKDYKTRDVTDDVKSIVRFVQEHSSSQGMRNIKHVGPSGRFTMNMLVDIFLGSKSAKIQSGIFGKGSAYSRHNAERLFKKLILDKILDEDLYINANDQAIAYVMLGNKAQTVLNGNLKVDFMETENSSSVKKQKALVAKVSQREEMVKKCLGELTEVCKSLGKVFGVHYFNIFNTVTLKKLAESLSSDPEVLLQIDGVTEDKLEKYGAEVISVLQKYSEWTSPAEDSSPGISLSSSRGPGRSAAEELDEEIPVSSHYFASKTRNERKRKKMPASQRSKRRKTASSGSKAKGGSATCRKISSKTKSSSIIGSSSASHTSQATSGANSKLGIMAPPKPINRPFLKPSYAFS
Outline: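 Forked 20-bp duplex substrate (200 nM, TAMRA/BHQ-2) plus 2 mM ATP added after 15 min compound preincubation with 50 nM enzyme, pH 8.0, poly(dI-dC) 2.5 ug/ml. Strand separation followed by fluorescence (525/598 nm) over 2 h, normalized to enzyme-free and DMSO controls.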

[14] = Validation screen for small molecules that induce DNA re-replication in MCF 10A normal breast cells (AID 463097); note: potency is the fitted concentration of half-maximal effect; nearly all actives have a fitted effect of over 60% in size
Outline: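 DNA re-replication was detected as a rise in nuclei with elevated Hoechst fluorescence after a 48 hr compound exposure of MCF 10A cells at 37 C.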

[15] = target: ATP-dependent 6-phosphofructokinase (Trypanosoma brucei brucei) (UniProt O15648); assay: qHTS Validation Assay to Find Inhibitors of T. brucei phosphofructokinase (AID 485368); note: potency is the fitted concentration of half-maximal effect
UniProt O15648, sequence (O15648 whole entry, looked up): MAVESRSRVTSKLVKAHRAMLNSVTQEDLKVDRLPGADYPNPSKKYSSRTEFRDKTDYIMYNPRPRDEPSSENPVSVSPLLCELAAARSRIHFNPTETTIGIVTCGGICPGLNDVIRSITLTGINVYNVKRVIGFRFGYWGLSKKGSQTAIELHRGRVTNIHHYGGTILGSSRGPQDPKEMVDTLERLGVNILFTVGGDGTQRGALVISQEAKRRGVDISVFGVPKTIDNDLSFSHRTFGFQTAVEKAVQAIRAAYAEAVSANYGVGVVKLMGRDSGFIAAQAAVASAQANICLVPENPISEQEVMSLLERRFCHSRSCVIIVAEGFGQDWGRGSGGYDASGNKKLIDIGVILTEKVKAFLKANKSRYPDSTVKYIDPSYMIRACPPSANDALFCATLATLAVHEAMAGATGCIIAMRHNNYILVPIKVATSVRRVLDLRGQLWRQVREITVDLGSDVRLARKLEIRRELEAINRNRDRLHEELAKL
Outline: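 Activity was read as ADP production by luminescence (ADP-Glo) after 45 min at room temperature. The enzyme was 1.25nM PFK in 0.1M TEA pH 8.0 with 0.5 mM F6P, 0.1mM ATP and 5 mM MgCl2. Compounds were titrated up to 57 uM and % activity normalized to no-enzyme and full-enzyme controls.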

[16] = target: Chromobox protein homolog 1 (Homo sapiens) (UniProt P83916); assay: qHTS Validation Assay for Inhibitors of HP1-beta Chromodomain Interactions with Methylated Histone Tails (AID 488953); note: potency is the fitted concentration of half-maximal effect; nearly all actives have a fitted effect of over 50% in size
UniProt P83916, sequence (P83916 whole entry, looked up): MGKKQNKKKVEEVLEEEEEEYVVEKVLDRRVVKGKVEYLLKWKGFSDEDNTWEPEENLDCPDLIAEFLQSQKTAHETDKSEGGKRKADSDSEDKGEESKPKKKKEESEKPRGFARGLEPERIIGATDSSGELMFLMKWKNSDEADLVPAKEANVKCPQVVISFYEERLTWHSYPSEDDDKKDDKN
Outline: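 50 nM HP1-beta + 50 nM biotin-H3(1-18)K9me3, PBS pH 7.4, 0.01% Tween-20, 30 min RT; compound added, 30 min RT; AlphaScreen beads 10 ug/mL final, 30 min dark; luminescence read.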

[17] = target: D(1A) dopamine receptor (Homo sapiens) (UniProt P21728); assay: HTS Assay for Allosteric Agonists of the Human D1 Dopamine Receptor: Primary Screen for Antagonists (AID 488983);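 note: calcium flux response to an EC80 dopamine challenge measured with no-wash dye; potency is the fitted concentration of half-maximal effect; nearly all actives have a fitted effect of over 65% in size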
UniProt P21728, sequence (P21728 whole entry, looked up): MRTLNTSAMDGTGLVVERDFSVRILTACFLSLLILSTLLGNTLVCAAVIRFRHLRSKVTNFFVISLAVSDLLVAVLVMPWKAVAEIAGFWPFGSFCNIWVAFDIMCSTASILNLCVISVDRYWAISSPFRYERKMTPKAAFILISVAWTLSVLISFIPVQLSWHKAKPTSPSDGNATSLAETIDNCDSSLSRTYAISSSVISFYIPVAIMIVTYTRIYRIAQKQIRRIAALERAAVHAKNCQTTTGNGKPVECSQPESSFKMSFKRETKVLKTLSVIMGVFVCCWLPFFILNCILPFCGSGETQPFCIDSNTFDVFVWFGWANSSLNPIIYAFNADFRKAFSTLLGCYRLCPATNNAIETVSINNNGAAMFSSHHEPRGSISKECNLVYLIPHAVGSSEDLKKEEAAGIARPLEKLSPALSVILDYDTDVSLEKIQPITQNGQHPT
Outline: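 Cells are induced with tetracycline and incubated overnight at 30 C, then loaded with calcium dye for 30 to 90 minutes at room temperature. Compound addition is followed by a 180 s read, then an EC80 dopamine addition and another 180 s read.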

[18] = target: Ubiquitin carboxyl-terminal hydrolase 1 (Homo sapiens) (UniProt O94782); assay: Inhibitors of USP1/UAF1: Pilot qHTS (AID 504865);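 note: rhodamine fluorescence freed from ubiquitin-rhodamine substrate followed over time; top concentration of the series differs between compounds; % is set by controls: 0 for no effect and ±100 for the full control effect; nearly all actives have a fitted effect of over 35% in size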
Outline: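 Kinetic fluorescence assay: 1nM USP1/UAF1, 15 min compound preincubation, then 150nM Ub-Rho; 480/540 nm.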

[19] = qHTS Assay for Identifying Gametocytocidal Compounds (AID 743244);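 note: % is set by controls: 0 for no effect and ±100 for the full control effect; actives lower the fluorescent signal which means gametocytes are killed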; details: P. falciparum 3D7 stage III-V gametocytes, alamarBlue, 72 h; max response: active compounds read low
Outline: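 Late gametocytes (III–V), P. falciparum 3D7; 72 h drug, then 24 h alamarBlue; resazurin reduction read by fluorescence.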

[20] = qHTS for Inhibitors of the Functional Ribonucleoprotein Complex (vRNP) of Lassa (LASV) Arenavirus: LASV Primary Screen - GLuc reporter signal (AID 1347082; calls by dose curve; tested in HEK293 reporter line; note: % is set by controls: 0 for no effect and ±100 for the full control effect; nearly all actives have a fitted effect of over 60% in size); details: LASV minigenome vRNP, Gaussia luciferase reporter; activity change, negative = inhibition: at 57.5 µM (top of the series) unless noted
[21] = target: Furin (Homo sapiens) (UniProt P09958); assay: Furin counterscreen qHTS for Zika virus inhibitors (AID 1347149); note: potency is the fitted concentration of half-maximal effect; nearly all actives have a fitted effect of over 70% in size
Outline: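 Fluorogenic cleavage of BOC-RVRR-AMC (2 microM final, Km ~15 µM) was monitored (ex 340, em 450 nm) at 37C after 15 min RT preincubation of 5 nM furin with compounds in HEPES pH 7.0 buffer with CaCl2 and Triton X-100. Percent inhibition was fitted to a 4-parameter Hill curve.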

[22] = tested on: Zika virus NS2B-NS3 protease (linked construct); assay: Confirmatory screen NINDS AMC qHTS for Zika virus inhibitors (AID 1347152);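 note: AMC fluorescence gain from cleaved Bz-Nle-KRR-AMC substrate over 15 min; top concentration of the series differs between compounds; 0% = no-inhibitor control and -100% = no-enzyme control; nearly all actives have a fitted effect of over 70% in size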
Outline: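 In this dose-response qHTS, AMC release from 10 microM Bz-Nle-KRR-AMC by 1 nM linked protease is measured over 15 minutes (about 20% conversion) at pH 8.0. Percent inhibition is fitted to a 4-parameter Hill curve.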

[23] = tested on: Zika virus NS2B-NS3 protease (unlinked complex); assay: Confirmatory screen GU AMC qHTS for Zika virus inhibitors (AID 1347153);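 note: percent inhibition with 0% = no inhibitor control and 100% = no enzyme control; nearly all actives have a fitted effect of over 70% in size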
Outline: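 Unlinked NS2B-NS3 complex (25 nM) in 10 mM Tris-HCl pH 8.0, 0.01% Tween 20 preincubated 15 min with compound, then 10 microM Bz-Nle-KRR-AMC (Km 18.3 µM). Fluorescence change over 15 min, normalized, Hill-fitted.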

[24] = target: Lysine-specific demethylase 5B (Homo sapiens) (UniProt Q9UGL1); assay: Optimization screen for KDM5B Histone Demethylases FDH coupled qHTS against the LOPAC library (AID 1347166); details: KDM5B demethylation, FDH-coupled NADH fluorescence (FDH is formaldehyde dehydrogenase); activity, negative = inhibition: at 57.5 µM (top of the series) unless noted; note: potency is the fitted concentration of half-maximal effect
UniProt Q9UGL1, sequence (Q9UGL1 whole entry, looked up): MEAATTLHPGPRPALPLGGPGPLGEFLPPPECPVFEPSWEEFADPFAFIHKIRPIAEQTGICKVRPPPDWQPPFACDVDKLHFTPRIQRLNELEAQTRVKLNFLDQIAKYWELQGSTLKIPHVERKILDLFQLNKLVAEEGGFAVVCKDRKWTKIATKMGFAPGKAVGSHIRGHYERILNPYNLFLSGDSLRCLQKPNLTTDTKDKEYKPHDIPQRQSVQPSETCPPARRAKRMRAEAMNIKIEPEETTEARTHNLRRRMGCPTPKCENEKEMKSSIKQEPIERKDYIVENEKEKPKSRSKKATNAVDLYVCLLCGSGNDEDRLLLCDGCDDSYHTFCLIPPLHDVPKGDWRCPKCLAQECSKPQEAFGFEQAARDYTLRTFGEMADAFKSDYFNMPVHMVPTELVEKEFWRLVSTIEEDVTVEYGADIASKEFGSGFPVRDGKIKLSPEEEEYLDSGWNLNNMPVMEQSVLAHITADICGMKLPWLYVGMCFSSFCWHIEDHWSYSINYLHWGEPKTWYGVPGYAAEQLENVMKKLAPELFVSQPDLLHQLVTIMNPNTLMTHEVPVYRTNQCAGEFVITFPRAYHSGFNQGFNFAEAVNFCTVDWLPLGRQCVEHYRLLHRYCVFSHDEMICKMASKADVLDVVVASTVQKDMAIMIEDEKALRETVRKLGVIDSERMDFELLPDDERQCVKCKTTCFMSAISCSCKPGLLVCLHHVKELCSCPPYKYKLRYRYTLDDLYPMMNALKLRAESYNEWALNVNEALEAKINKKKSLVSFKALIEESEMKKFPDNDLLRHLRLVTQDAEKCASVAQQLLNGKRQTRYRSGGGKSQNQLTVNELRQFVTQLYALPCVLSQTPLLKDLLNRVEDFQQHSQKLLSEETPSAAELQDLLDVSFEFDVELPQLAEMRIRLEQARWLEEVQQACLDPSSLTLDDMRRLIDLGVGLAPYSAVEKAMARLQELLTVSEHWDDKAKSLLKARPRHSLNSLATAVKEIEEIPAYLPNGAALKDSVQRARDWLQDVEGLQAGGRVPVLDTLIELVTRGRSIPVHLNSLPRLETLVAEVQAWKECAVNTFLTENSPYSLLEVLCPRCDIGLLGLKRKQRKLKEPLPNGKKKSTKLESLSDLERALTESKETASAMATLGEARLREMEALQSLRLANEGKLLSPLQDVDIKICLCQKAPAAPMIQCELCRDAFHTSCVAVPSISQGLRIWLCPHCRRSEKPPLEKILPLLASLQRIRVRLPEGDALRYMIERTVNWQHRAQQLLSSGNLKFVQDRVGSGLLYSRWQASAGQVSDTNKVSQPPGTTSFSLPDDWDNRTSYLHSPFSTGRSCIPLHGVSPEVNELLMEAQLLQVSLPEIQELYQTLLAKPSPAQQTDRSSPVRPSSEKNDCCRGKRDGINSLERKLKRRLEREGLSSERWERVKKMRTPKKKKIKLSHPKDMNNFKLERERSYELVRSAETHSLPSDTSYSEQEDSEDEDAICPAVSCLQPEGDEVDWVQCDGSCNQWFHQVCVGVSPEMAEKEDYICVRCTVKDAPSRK
Outline: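 KDM5BDeltaAP (200nM final) preincubated 10 min with compound, then 12.5uM H3K4Me3, 25uM a-ketoglutarate, ascorbate, Fe(II), NAD+ and FDH added; 50mM HEPES pH 7.5, 0.01% Tween-20. NADH fluorescence (340/450 nm) change over 30 min, room temperature.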
Tags give direction and shape of the fitted curve.

In the case of CC(C)Oc1cccnc1N(C)C1CCN(Cc2ccccc2)CC1, the activity change, negative = inhibition [1] is reported as inconclusive: -33.4% [inhibitor] [at 38 µM], the activity change, negative = inhibition [2] is reported as inconclusive: 4.2% and the activation [3] is reported as inactive: -11.6%. The activity change, negative = inhibition [4] was inconclusive: -16.2% [phenotype inactive], the Potency [5] was inconclusive: 15.8 µM [inhibitor, partial curve, poor fit] and the Potency [6] was inconclusive: 15.8 µM [inhibitor, partial curve, poor fit]. The activity change, negative = inhibition [7] was inconclusive: -1.16%, the Potency [8] was inconclusive: 5.01 µM [inhibitor, partial curve, poor fit] and the Potency [9] was inconclusive: 12.6 µM [inhibitor, partial curve]. The Potency [10] was inconclusive: 17.8 µM [inhibitor, single point], the Potency [11] was inconclusive: 7.94 µM [inhibitor, partial curve, poor fit] and the Potency [12] was inconclusive: 14.1 µM [inhibitor, partial curve, poor fit]. The Potency [13] was “inactive”, the Potency [14] was inconclusive: 35.5 µM [activator, single point] and the Potency [15] was inconclusive: 8.49 µM [activator, partial curve, poor fit]. The Potency [16] was inconclusive: 6 nM [inhibitor, full curve], the Potency [17] was inconclusive: 14.1 µM [inhibitor, single point] and the Potency [18] was “inactive”. For the same compound, the max response [19] was inactive: -6.11%, the Potency [20] was “inactive” and the Potency [21] was inconclusive: 24.1 µM [inhibitor, partial curve]. The Potency [22] was “inactive”, the Potency [23] was “inactive” and the Potency [24] was inconclusive: 25.1 µM [inhibitor, partial curve, poor fit].
